Experimental data: the supplement of paper PMC11417369
± gives the standard deviation of the averaged measurements. The list shows a part of the results.

system: PfAP2-G AP2 domain (GST-tagged); test: gcPBM binding intensity (ln(normalized median fluorescence intensity)); higher = stronger DNA binding
Summary of the method: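 Using an Agilent 4 × 180k array, primer-extended double-stranded 36-bp intergenic genomic probes and negative controls were exposed for 1 h to GST-fused P. falciparum DNA-binding domains expressed in E. coli. Binding was carried out in 1× PBS with 1% milk, 0.2 mg/ml BSA, 0.5% salmon testes DNA and 0.03% Triton X-100, and protein was detected with Alexa488 anti-GST antibody and a 488 nm scan. Binding intensity is the highest Masliner-normalised natural-log median intensity across replicate spots of either probe orientation.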

Row | Sequence | gcPBM binding intensity (ln)
1 | AAATAAATAATATTCACACATAAAAAAAATGGAGTT [CACACA_site4525] | 9.81 ± 0.099
2 | TATTTATACATAGGTGGTACTACTTTAAACAAAAAA [XGTACX_site5062] | 11.3 ± 0.91
3 | TATATGGAGAGATATGCACACTGTATGAATGCCCCC [CACACA_site8853] | 11.1 ± 0.67
4 | ATGTTGTTCATAAATATATTATTTTTAAATGTACAA [GTGCAC_negctrl_site507] | 10.8 ± 0.38
5 | CACGCACGCACATACACACACATACACATATAAATA [CACACA_site6907] | 10.6 ± 0.5
6 | AATTATATTGGTTGTAGTACTAAAAGTAAGTTAATG [XGTACX_site33] | 11.4 ± 0.84
7 | TATTCACTGATATGTTGTACATAAAAAAAATTAAAT [XGTACX_site6128] | 11.3 ± 0.85
8 | GTATTTAGATGATTAACACACATATGTGTATTAATA [CACACA_site6733] | 10.3 ± 0.16
9 | ATATATATTATTGAATGTACATAATTATTTAATAGT [XGTACX_site4971] | 11.1 ± 0.61
10 | ATATATTCACGTTAATGTACACATAATAAATTATAT [XGTACX_site5481] | 11.3 ± 0.88
11 | TTATATAAGATATTTCGTACACATTCAAAAATTATG [XGTACX_site7375] | 11.1 ± 0.67
12 | AATAAAATATAAGGGGGTACGGAGAAAGGATACTAT [XGTACX_site7733] | 11.2 ± 0.75
13 | TGAAAAAAGAAAAATACACACATATAATATAATATA [CACACA_site2255] | 9.74 ± 0.071
14 | TTTTTTATATTGATATTTATTAAATATGAAATGTTA [GTGCAC_negctrl_site405] | 9.78 ± 0.45
15 | CATACACCCCAACACACACACACACCCATATATAAT [CACACA_site8097] | 10.3 ± 0.36
16 | AAAAAAAAAAAAAAAAGTACATATATTATATATATA [XGTACX_site2983] | 11.3 ± 0.93
17 | TGTCTTTATATATATTTATTTTTTAGTATTACATAA [CACACA_negctrl_site21] | 9.86
18 | ATTTTCATATTTTTATGTACATATTATAAGAATATA [XGTACX_site3691] | 11.4 ± 0.71
19 | TATCTTTTTTTTAATACACACAAATTTATGAAAGTA [CACACA_site7879] | 10.2 ± 0.33
20 | ATAATTCTTTATTATAGTACACAAACTTTCAAAACA [XGTACX_site3597] | 11.3 ± 0.89
21 | CTATACATATTATATAGTACTTTATTATTATGACTA [XGTACX_site1382] | 10.8 ± 0.45
22 | TATATAAGAGGAAAAAGTACAGAAAAACAAAGAGAA [XGTACX_site2926] | 11.4 ± 0.8

Row | Sequence | gcPBM binding intensity (ln)
23 | TGTATTTATAGCAATACACACATAACAATAAATATA [CACACA_site3328] | 10.04 ± 0.078
24 | TTTATTCCAGTATTCACACACGAATAACCACATAAC [CACACA_site5104] | 10.3 ± 0.28
25 | TTTATTTTAAAATTTACACACAAAAGGATTTATAGA [CACACA_site2338] | 10.1 ± 0.15
26 | TATATTAATTAACAGTGTACAAAAAAAAATAAAAAA [XGTACX_site3702] | 11.2 ± 0.8
27 | AAAATAAAAAGAAATTGTACGTATAATAATATATTT [XGTACX_site7593] | 11.4 ± 0.79
28 | AGGATACACGGACACACACACATATATATATATATA [CACACA_site4654] | 11.3 ± 0.86
29 | TATTAAAATAACATACGTACATAAGTATATAAAAAA [XGTACX_site1769] | 11.6 ± 0.93
30 | ACAAAACATATATTCTGTACATATATAATGGTGACT [XGTACX_site6796] | 10.9 ± 0.57
31 | TTTATATCTTATTATAGGAAAATGAATATTTTCTCT [TGCATGCA_negctrl_site478] | 9.665 ± 0.064
32 | AAGAAAATATAAATATGTACTTAATAATTTATTTAT [XGTACX_site8100] | 11.1 ± 0.67
33 | AAAAAAGAGGGATACACACAAACATATATATATATA [CACACA_site2243] | 10.1 ± 0.24
34 | TTATGTAAATAATTTTGTACTTAAATTATTATATAA [XGTACX_site1491] | 11 ± 0.74
35 | CAACTTTTTGAAAATTGTACATGACATATATATATA [XGTACX_site260] | 11.1 ± 0.78
36 | AAAAAAAATATGATGAGTACACAATAATACATGCAA [XGTACX_site6999] | 11.5 ± 0.88
37 | TGTATAAATAAATGCGTACACACTAATAAAAAAAAA [CACACA_site858] | 11.6 ± 0.8
38 | ATAGATAAAAAATTATTTATTTAGAATTTTTATGTA [CACACA_negctrl_site400] | 9.48 ± 0.16
39 | GTGGTTATATATTAAGTGCATATTATAATTTTAAAC | 10.3 ± 0.19
40 | AATATCTAAAATGTGTGTACATAATATTTTTAATAT [XGTACX_site3831] | 11.7 ± 1.1
41 | ATATATATATTAAATACACACATTTTTGATTAGGTT [CACACA_site3119] | 10 ± 0.23
42 | TTTGAATCCTTATATACACACATTATGTAATATTAT [CACACA_site561] | 10.03 ± 0.014
43 | AAAAGAGAAATGGGCACACACACACCGATTATATAT [CACACA_site4942] | 10.5 ± 0.25
44 | AATACACCCAGACACACACACAAAAAAAAAAAAAAA [CACACA_site513] | 10.1 ± 0.58
